This passage reports % PG-5 Immunoreactivity, Left Hippocampus and % PG-5 Immunoreactivity, Right Hippocampus results from patent US20210121565A1.

For this assay, the target named is tau aggregates in brain stem homogenate preps from 4.5 to 5 month old P301S mice, P10636. As to the kind of experiment: cell-based or functional assay.

B1: Exemplified anti-Tau antibody (having both HCs of SEQ ID NO.2 and both LCs of SEQ ID NO.1) (antibody, human IgG4 S228P, kappa, F234A L235A)
heavy: EVQLVQSGAEVKKPGESLKISCKGSGYTFSNYWIEWVRQMPGKGLEWMGEILPGSDSIKYEKNFKGQVTISADKSISTAYLQWSSLKASDTAMYYCARRGNYVDDWGQGTLVTVSSASTKGPSVFPLAPCSRSTSESTAALGCLVKDYFPEPVTVSWNSGALTSGVHTFPAVLQSSGLYSLSSVVTVPSSSLGTKTYTCNVDHKPSNTKVDKRV[left out - human IgG4 Fc with S228P F234A L235A (EU numbers)]
light: EIVLTQSPGTLSLSPGERATLSCRSSQSLVHSNQNTYLHWYQQKPGQAPRLLIYKVDNRFSGIPDRFSGSGSGTDFTLTISRLEPEDFAVYYCSQSTLVPLTFGGGTKVEIKRTVAAPSVFIFPPSDEQLKSGTASVVCLLNNFYPREAKVQWKVDNALQSGNSQESVTEQDSKDSTYSLSSTLTLSKADYEKHKVYACEVTHQGLSSPVTKSFNRGEC
Consider B1, for which the % PG-5 Immunoreactivity, Left Hippocampus turned out to be 2.52% and the % PG-5 Immunoreactivity, Right Hippocampus was found to be 0.63%.
